# Measured values as given in PubChem BioAssay AID588591 (National Center for Advancing Translational Sciences (NCATS), 2011).
# Out of some 390,000 compounds screened, about 4,700 (1.2%) were called active. Inconclusive results, whose numbers are uncertain, are shown with a selection of clear calls. Calls come from the whole dose curve; as a rule, active = well fitted inhibition curve with a large enough effect; inconclusive = small, poorly fitted or top-dose-only effect, or another doubt; inactive = no such curve, though single readings can be large or run the other way. Where the call is inconclusive, the potency comes from a doubtful curve fit.
# Biological target: DNA polymerase eta (Homo sapiens) (UniProt Q9Y253)
# Chain of UniProt Q9Y253 (Q9Y253 whole entry, looked up): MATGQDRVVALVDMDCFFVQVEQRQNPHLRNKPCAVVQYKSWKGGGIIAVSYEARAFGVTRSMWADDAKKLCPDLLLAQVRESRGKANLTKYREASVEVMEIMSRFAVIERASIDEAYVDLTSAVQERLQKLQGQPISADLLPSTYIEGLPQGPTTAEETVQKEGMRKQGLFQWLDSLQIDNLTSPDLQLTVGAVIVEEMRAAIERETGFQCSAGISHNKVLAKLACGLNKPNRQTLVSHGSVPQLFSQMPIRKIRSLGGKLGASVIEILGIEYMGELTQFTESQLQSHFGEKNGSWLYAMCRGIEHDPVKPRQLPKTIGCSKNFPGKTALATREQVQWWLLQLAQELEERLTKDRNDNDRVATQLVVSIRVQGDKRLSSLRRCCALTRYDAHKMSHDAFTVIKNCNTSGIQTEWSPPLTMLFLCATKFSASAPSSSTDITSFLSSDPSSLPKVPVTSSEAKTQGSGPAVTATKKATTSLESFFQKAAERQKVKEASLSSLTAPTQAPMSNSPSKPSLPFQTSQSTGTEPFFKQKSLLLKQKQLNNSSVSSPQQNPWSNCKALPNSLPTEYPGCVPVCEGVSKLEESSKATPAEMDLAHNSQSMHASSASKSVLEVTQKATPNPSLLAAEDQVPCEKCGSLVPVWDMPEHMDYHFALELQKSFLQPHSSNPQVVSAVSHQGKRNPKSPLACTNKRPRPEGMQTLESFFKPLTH
# Test: qHTS for Inhibitors of Polymerase Eta
# Conditions: recombinant Pol eta, fluorescent DNA replication assay; series mostly up to 114 µM
# Procedure, shortened: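 Fluorescent replication assay: 50 nM final substrate added after a 15 min room-temperature compound preincubation with 10 nM enzyme. Signal taken at 0 min and again at 10 min.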
# Potency is the fitted concentration of half-maximal effect; tags give direction and shape of the fitted curve.
row,SMILES,Potency
1,Cc1ccc(Cn2c(=O)c3cccnc3n(CC(=O)Nc3cccc(C(F)(F)F)c3)c2=O)cc1,"inconclusive: 50.1 µM [inhibitor, partial curve]"
2,O=C(Nc1ccccc1C(=O)O)/C(=C/c1ccc([N+](=O)[O-])cc1)NC(=O)c1ccc(Br)o1,active: 39.8 µM
3,O=C(COc1coc(CN2CCN(Cc3ccccc3)CC2)cc1=O)Nc1ccccc1,"inconclusive: 22.4 µM [inhibitor, full curve, poor fit]"
4,COc1ccc(CCN=C(N)NS(=O)(=O)c2ccc3ccccc3c2)cc1,"inconclusive: 79.4 µM [inhibitor, partial curve, poor fit]"
5,Cc1ccc(/C=N/NC(=O)C(O)c2ccccc2)o1 (stereo not drawn),inactive
6,COc1cc(OC)c(NC(=O)CN2C(=O)CCn3nc(-c4cccn4C)cc32)cc1Cl,"inconclusive: 100 µM [inhibitor, single point]"
7,Cc1cc(=O)n(Nc2ccccc2)c(O)c1C#N,"inconclusive: 50.1 µM [inhibitor, partial curve]"
8,COc1ccc2nc(NC(=O)c3cccc(N4C(=O)CCC4=O)c3)sc2c1,"inconclusive: 100 µM [inhibitor, partial curve, poor fit]"
9,CCOc1cc(/C=C2/C(=N)N3C(=NC2=O)SN=C3S(C)(=O)=O)ccc1OS(=O)(=O)c1ccccc1,active: 79.4 µM
10,O=C(COC(=O)CN1C(=O)c2ccccc2C1=O)Nc1ncc(Cl)cc1Cl,"inconclusive: 25.1 µM [inhibitor, partial curve, poor fit]"
11,COc1cccc(C2CC(c3ccc(Cl)cc3Cl)Nc3nc(N)nn32)c1 (stereo not drawn),"inconclusive: 89.1 µM [inhibitor, partial curve, poor fit]"
12,O=C(CC1N=C2c3ccccc3N=C(SCc3ccc(Cl)cc3)N2C1=O)NCc1ccco1 (stereo not drawn),active: 79.4 µM
13,Cc1nnc(NC(=O)C2CSC3(C)CCC(=O)N23)s1 (stereo not drawn),"inconclusive: 5.01 µM [inhibitor, full curve, poor fit]"
14,CCOc1ccc(/C=c2\sc3nc(-c4ccco4)nn3c2=O)cc1OCC,active: 14.1 µM
15,CN1CCN(CCCNc2nc3ccccc3c3nc(-c4ccccc4)nn23)CC1,inactive
16,CCNC(=O)C(=O)Nc1ccc(OC)c(Cl)c1,"inconclusive: 100 µM [inhibitor, single point]"
17,CC1CCc2sc(NC(=O)c3ccc(N4C(=O)CCC4=O)cc3)c(C(N)=O)c2C1 (stereo not drawn),"inconclusive: 7.94 µM [inhibitor, partial curve, poor fit]"
18,OCC1OC(n2nnc3ccccc32)C(O)C(O)C1O (stereo not drawn),"inconclusive: 3.98 µM [inhibitor, full curve, poor fit]"
19,Cc1nn(-c2ccccc2)c2sc(-c3nnc(SCC(=O)O)o3)cc12,active: 89.1 µM
20,CCCC(=O)Nc1cc(C)c(O)c(-c2nc3ncccc3o2)c1,inactive
21,Cc1c(NC(=O)c2cc(-c3ccc(Cl)s3)nc3ccccc23)c(=O)n(-c2ccccc2)n1C,"inconclusive: 12.6 µM [inhibitor, partial curve, poor fit]"
22,COc1ccc(CN2C(=O)c3ccc(C(=O)O)cc3C2=O)cc1,inactive
23,N#Cc1c(N)nc2c3c(sc(=N)c2c1N)NC(=O)CC3c1ccccc1 (stereo not drawn),"inconclusive: 8.91 µM [inhibitor, full curve, poor fit]"

row,SMILES,Potency
1,CC1=CC(C)(C)n2c(O)c(N=N)c3cc(C)cc1c32,"inconclusive: 89.1 µM [inhibitor, partial curve, poor fit]"
2,COc1ccc(C)cc1NC(=O)C(=O)NCCc1csc(-c2ccc(C)cc2)n1,inactive
3,Cc1cc2nc3ccc(=[N+](C)C)cc-3sc2cc1N,"inconclusive: 63.1 µM [inhibitor, partial curve, poor fit]"
4,COC(=O)c1cc(NC(=O)c2cc(-c3ccc(Cl)cc3)oc2C(F)(F)F)ccc1N1CCOCC1,"inconclusive: 89.1 µM [inhibitor, partial curve, poor fit]"
5,O=c1[nH]c2cc3c(cc2cc1CN(CCc1ccccc1)C(=S)NCCCN1CCOCC1)OCCO3,"inconclusive: 79.4 µM [inhibitor, partial curve]"
6,COc1ccccc1-[n+]1c(C)cc(/C=C2\Sc3ccccc3N2C)cc1C,"inconclusive: 63.1 µM [inhibitor, partial curve, poor fit]"
7,Cn1c(=O)c2c(SCC(=O)NCc3ccco3)nc(-c3ccccc3Cl)nc2n(C)c1=O,"inconclusive: 10 µM [inhibitor, partial curve, poor fit]"
8,Cc1ccc(NC(=O)CSc2nc3c(c(=O)[nH]2)CN(Cc2ccc4c(c2)OCO4)CC3)cc1C,"inconclusive: 100 µM [inhibitor, partial curve, poor fit]"
9,Cc1cccc(-c2n[nH]c(=S)n2/N=C/C=C/c2ccco2)c1,active: 79.4 µM
10,Cc1cc(/C=C2\C(=N)N3N=C(S(C)(=O)=O)SC3=NC2=O)c(C)n1Cc1ccccc1,active: 35.5 µM
11,CN1CCN(C(=O)c2cc3nc(-c4ccccc4)cc(-c4ccccc4)n3n2)CC1,"inconclusive: 25.1 µM [inhibitor, partial curve, poor fit]"
12,O=C(O)c1ccc2c(c1)C(=O)/C(=C/c1ccccc1)C2=O,active: 2.82 µM
13,CCOC(=O)c1c(C)c(C(=O)NCCc2ccc(OC)cc2)c(C)n1C,inactive
14,CCNc1nc2c(c(=O)[nH]c(=O)n2C)n1Cc1ccc(F)cc1,"inconclusive: 89.1 µM [inhibitor, partial curve, poor fit]"
15,COc1ccc(/C=C/C(=O)C2C(=O)C=C(C)OC2=O)cc1O (stereo not drawn),inactive
16,Cc1ccc2ccc(C(Nc3ccccn3)c3ccccc3)c(O)c2n1 (stereo not drawn),inactive
17,CC(NC(=O)c1ccco1)C(=O)Nc1nc(-c2ccccn2)cs1 (stereo not drawn),"inconclusive: 20 µM [inhibitor, partial curve, poor fit]"
18,COc1ccc(/C=C(\NC(=O)c2ccc(Cl)cc2)C(=O)NCCCN2CCOCC2)cc1OC,"inconclusive: 89.1 µM [inhibitor, single point]"
19,O=C(Cc1cccs1)N/N=C/C=C\c1ccco1,active: 50.1 µM
20,CCCCC(CC)Cn1c(O)c(/C=C2\C=NN=C2c2ccccc2)sc1=S (stereo not drawn),"inconclusive: 50.1 µM [inhibitor, partial curve, poor fit]"
21,O=C(COc1ccccc1)Nc1sc2c(c1C(=O)NCc1cccnc1)CCCC2,"inconclusive: 79.4 µM [inhibitor, partial curve]"
22,Cc1cc(C)n2cc(CSc3nc4ccccc4[nH]3)nc2n1,"inconclusive: 39.8 µM [inhibitor, partial curve, poor fit]"
23,O=C(COC(=O)CCC(=O)c1ccc(F)cc1)Nc1ccc2[nH]c(=O)[nH]c2c1,"inconclusive: 17.8 µM [inhibitor, partial curve, poor fit]"

row,SMILES,Potency
1,CSc1nc(Sc2ccccc2)c2ccccc2n1,inactive
2,Cc1cc(C)c2cc3c(N)c(C(=O)N4CCOCC4)sc3nc2c1,inactive
3,Cc1ncoc1C(=O)Nc1ncc([N+](=O)[O-])s1,"inconclusive: 50.1 µM [inhibitor, partial curve]"
4,O=C(NCC1CC1)c1cc([N+](=O)[O-])cc([N+](=O)[O-])c1,inactive
5,Cc1ccc(NNC(=S)Nc2ccc(C(C)C)cc2)c(C)c1,"inconclusive: 28.2 µM [inhibitor, single point]"
6,Nc1nc(=S)c2ncn(C3OC(CO)C(O)C3O)c2[nH]1 (stereo not drawn),active: 3.98 µM
7,Cc1nnc(SCC2=C(C(=O)O)N3C(=O)C(NC(=O)COc4ccccc4)C3SC2)s1 (stereo not drawn),active: 10 µM
8,COC(=O)c1sccc1NC(=O)Nc1ccc(OC)cc1,inactive
9,Cc1[nH]c2ccccc2c1N=Nc1cc(C(=O)O)cc(C(=O)O)c1,"inconclusive: 17.8 µM [inhibitor, full curve, poor fit]"
10,Cc1ccc(NC(=O)CSc2nc3ccccc3c3nc(CCn4c(C)nc5ccccc54)nn23)cc1F,"inconclusive: 22.4 µM [inhibitor, full curve, poor fit]"
11,CN(Cc1ccccc1)C(=O)c1cccc(NC(=O)Cc2ccc(NC(=O)C3CCCN(C(=O)C4CCCC4)C3)cc2)c1 (stereo not drawn),inactive
12,Cc1ccc(-n2ccc(=O)c(C(=O)Nc3ccc(S(=O)(=O)Nc4nccc(C)n4)cc3)n2)cc1,active: 39.8 µM
13,O=C(CSc1ccccc1)NCc1ccco1,"inconclusive: 39.8 µM [inhibitor, partial curve, poor fit]"
14,O=C(O)c1ccc2[nH]c3c(c2c1)CSCC3,active: 8.91 µM
15,CCOC(=O)c1cccc(-c2c(-c3ccccc3)ncc3cc(OC)c(OC)cc23)c1,"inconclusive: 79.4 µM [inhibitor, partial curve, poor fit]"
16,COC(=O)c1ccccc1NC(=O)c1ccc(-c2cccc(Cl)c2)o1,"inconclusive: 15.8 µM [inhibitor, partial curve, poor fit]"
17,CCN1C/C(=C/c2ccc(N3CCOCC3)cc2)C(=O)/C(=C/c2ccc(N3CCOCC3)cc2)C1,"inconclusive: 35.5 µM [inhibitor, single point]"
18,Cc1cc(/C=C(\C#N)C(=O)O)c(C)n1C1CC1,"inconclusive: 35.5 µM [inhibitor, single point]"
19,O=C1C=CC(=O)N1c1cccc2cccnc12,active: 28.2 µM
20,Oc1ccc(/C=N/Nc2ccc(Cl)nn2)c(O)c1O,active: 10 µM
21,CCCCC(=O)N(Cc1ccc2c(c1)OCO2)Cc1nc2ccccc2c(=O)[nH]1,inactive
22,COc1ccc(-c2cnc(C)o2)cc1S(=O)(=O)Nc1ccc(C)c(F)c1,"inconclusive: 100 µM [inhibitor, partial curve]"
